Molecules are shown by their SMILES. The whole screen tested about 340,000 compounds, of which about 6,900 (2%) were called active. Cut-off read from the data, not from the text of the source: active = inhibition above about 30%; inactive = below that, where a call was filed. The entries are a selection whose mix differs from that of the whole data set. The source gives no active or inactive call for entries shown without one.

The target of the assay is D(2) dopamine receptor (Homo sapiens) (UniProt P14416). Kind of assay: HTS Assay for Allosteric Antagonists of the Human D2 Dopamine Receptor: Primary Screen for Antagonists. Note: 0% is about no effect. Conditions: HEK293 TREx D2 cells, calcium flux, dopamine EC80; at 10 µM; stronger effect = higher value. An outline of the steps: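 Calcium flux kinetic readout in an inducible HEK293 TREx D2 line plated overnight at 30 C. After 180 s compound exposure, an EC80 dopamine challenge follows with another 180 s kinetic read to detect antagonism.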
Sequence of UniProt P14416 (P14416 whole entry, looked up): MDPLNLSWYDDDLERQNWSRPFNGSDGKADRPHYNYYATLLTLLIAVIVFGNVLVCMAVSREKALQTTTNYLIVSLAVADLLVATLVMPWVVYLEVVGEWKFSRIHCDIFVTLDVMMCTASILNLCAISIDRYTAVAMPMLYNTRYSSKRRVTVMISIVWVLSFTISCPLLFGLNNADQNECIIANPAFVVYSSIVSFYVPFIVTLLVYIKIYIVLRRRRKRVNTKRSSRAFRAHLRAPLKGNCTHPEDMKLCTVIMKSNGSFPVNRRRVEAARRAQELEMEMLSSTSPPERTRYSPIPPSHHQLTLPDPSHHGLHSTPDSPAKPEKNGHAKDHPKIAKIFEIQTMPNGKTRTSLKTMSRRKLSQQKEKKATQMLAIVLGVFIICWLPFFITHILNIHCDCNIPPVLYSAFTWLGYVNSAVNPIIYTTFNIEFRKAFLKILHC
(In general: A change in cytosolic calcium serves as a functional read-out for many receptors and channels.)
What is called inhibition is the change of the read-out against control, counted positive when it falls. `Cc1cccc(Cn2c(SCc3ccc(C(=O)NCc4ccccc4F)cc3)nc3cccnc32)c1`: the inhibition is 17.8%.

For the molecule `Cc1ccc(-n2ccnc(NCc3cccs3)c2=O)cc1C`, the inhibition is -0.212%.

`Cc1cc(C)c2oc(C(=O)Nc3nc4ccc(Cl)cc4s3)cc(=O)c2c1`: the inhibition is 6.87%.

Take `COc1cccc(NS(=O)(=O)c2ccc3[nH]cc(C(=O)NCCc4ccc(C)cc4)c(=O)c3c2)c1`: the inhibition was -25.5%.

As to `CN1C(C(=O)NC(C)(C)C)=CC(c2ccc3c(c2)OCO3)=NS1(=O)=O`, the inhibition worked out at 13.2%.

In the case of `Cn1c2ccccc2c2c(C(=O)N3CCN(c4cccc(C(F)(F)F)c4)CC3)cn(C3CCCCC3)c(=O)c21`, the inhibition stood at 8.64%.

Take `Cc1ccc(-c2cn3nc(N4CCC(C(=O)Nc5ccccc5C)CC4)sc3n2)cc1`: the inhibition stood at 11.6%.

On to `CCOc1ccccc1CNC(=O)C1CCN(Cc2cc3ccccc3n2Cc2ccccc2)CC1`, for which the inhibition came out at 18%.

On to `CN(C)S(=O)(=O)N(CC(=O)NCCSc1ccc(Cl)cc1)c1ccccc1`, for which the inhibition came out at 6.49%.

For the molecule `CCC(C(=O)Nc1cc(OC)ccc1OC)n1nc(-c2ccccc2)c2c(c1=O)CCCC2` (stereo not given), the inhibition amounted to 10.4%.

For the molecule `CC(=O)N1CCc2cc(CNC(=O)Nc3ccccc3C(F)(F)F)ccc21`, the inhibition turned out to be 4.33%.

Turning to `CCCN1CCCc2cc(CN(CCCN3CCOCC3)C(=O)Nc3ccc(OCC)cc3)ccc21`, the inhibition was -25.8%.

Take `Cc1cccc(Cn2nnc3c(=O)[nH]c(C4CCCN(C(=O)c5ccc(C(C)(C)C)cc5)C4)nc32)c1` (stereo not given): the inhibition was determined as 21.4%.

`COc1ccc2c(CNC3CCC(C)CC3)c(C(=O)O)n(Cc3ccccc3)c2c1` (stereo not given): the inhibition is -14.5%.

`COc1ccccc1C(=O)NCCc1csc(-c2ccc(C(F)(F)F)cc2)n1`: the inhibition is -6.37%.

As to `COc1cc(NC(=O)Cn2c(=O)n(CC3CCCO3)c(=O)c3cc(OC)c(OC)cc32)cc(OC)c1` (stereo not given), the inhibition is -1.08%.

On to `CCOc1ccccc1N1CCN(C(=O)NCc2ccc(C)cc2)CC1`, for which the inhibition is active: 30.3%.

With `CCOCCc1nn2c(=O)cc(COC(=O)c3ccc(NC(=O)c4ccc(F)cc4)cc3)nc2s1`, the inhibition turned out to be 18.1%.

As for `CCc1ccc(C2CC(=O)N(c3cccc(C(F)(F)F)c3)C3=C2C(=O)OC3)cc1` (stereo not given), the inhibition turned out to be 0.412%.

As for `Cc1ccc(C)c(NC2=C(c3ccc(C(F)(F)F)cc3)C(=O)c3ccccc32)c1`, the inhibition was found to be 5.31%.

Take `CCn1c(=O)c(C(=O)Nc2cc(OC)c(OC)c(OC)c2)nc2ccccc21`: the inhibition amounted to 7.77%.

As for `COc1ccc(C2CC(=O)c3cc(-c4nc(-c5cccc([N+](=O)[O-])c5)cs4)c(=O)n(-c4ccccc4C)c3C2)cc1` (stereo not given), the inhibition was 0.951%.

Regarding `Cc1ccc(-c2cc(NC(=O)COc3c(C)cc(C)cc3C)on2)cc1`, the inhibition is 14.2%.

With `COc1ccccc1N1CCN(CC(C)N(C(=O)C2CCCCC2)c2ccccn2)CC1` (stereo not given), the inhibition was active: 82.1%.

`O=C(NCc1ccccc1F)c1cccc(NC(=O)N2CCSc3ncccc32)c1`: the inhibition is -11%.

Consider `COC(=O)c1ccc(NC(=O)c2nn(C)c3c2COc2ccccc2-3)cc1`, for which the inhibition was -13.2%.

`c1ccc(SCCN2CCN(c3ccccc3)CC2)cc1`: the inhibition is active: 60.1%.

For `CCOc1ccc(OCC(=O)NCCS(=O)(=O)N2CCN(c3ccc(OC)cc3)CC2)cc1`, the inhibition is 17.5%.

For `Cc1ccc(NC(=O)Cn2c(=O)n(CCc3ccccc3)c(=O)c3sc4ccccc4c32)cc1C`, the inhibition was -2.15%.

As to `Cc1nn(CCCC(=O)NCCc2ccc(Cl)cc2)c(=O)c2nn(-c3ccccc3)c(C)c12`, the inhibition was -1.09%.

Take `O=C(NCc1cccc(Cl)c1)c1oc(=O)c2ccccc2c1-c1ccccc1`: the inhibition is -11.1%.

On to `COc1ccccc1CNS(=O)(=O)c1cc(-c2cc(C)no2)ccc1C`, for which the inhibition was 7%.

`COc1ccc(CNC(=O)CCc2nc3cccnc3n2Cc2ccc(OC)cc2)cc1`: the inhibition was found to be 16%.

For the molecule `CCCCOc1ccc(Cn2c(=O)oc3ccccc32)cc1`, the inhibition came out at 3.1%.

Turning to `O=C(Cn1cc(S(=O)(=O)Cc2cccc(Cl)c2)c2ccccc21)Nc1ccc(F)c(Cl)c1`, the inhibition is -9.19%.

Turning to `Cc1ccccc1Cc1c(C)nc2c(-c3ccccc3)c(C)[nH]n2c1=O`, the inhibition was -7.42%.

In the case of `O=C(COc1ccccc1)NCCc1csc(-c2ccc(F)cc2)n1`, the inhibition came to 10.6%.

With `CN(C(=O)Cn1c(=O)n(Cc2ccc(C(=O)NCc3ccc4c(c3)OCO4)cc2)c(=O)c2ccccc21)c1ccccc1`, the inhibition was -8.96%.

With `Cc1ccc(CNC(=O)C2CCCN(c3nc4c(C)cc(C)cc4s3)C2)cc1` (stereo not given), the inhibition was -4.28%.

On to `CC(=O)c1cccc(Nc2cc(C)nc3nc(-c4ccccc4C)nn23)c1`, for which the inhibition is -5.93%.

As for `COC(=O)c1ccccc1NC(=O)CCn1nc(C)c2c(C)n(-c3ccccc3)nc2c1=O`, the inhibition was 11%.

As to `Cc1ccc(OCCSc2nc3ccccc3n2CC(=O)N2CCCCC2)cc1C`, the inhibition was determined as 1.45%.

Regarding `COC(=O)c1ccccc1NC(=O)Cn1ncc2c(C)n(Cc3ccc(F)cc3)c(C)c2c1=O`, the inhibition was -6.78%.

For `Cc1sc(NC(=O)c2ccco2)c(CN2CCN(c3ccccn3)CC2)c1C`, the inhibition was active: 124%.

Turning to `CCOc1ccc(CNC(=O)CN2C(=O)CSc3ccc(S(=O)(=O)N4CCOCC4)cc32)cc1OC`, the inhibition amounted to 10.7%.

Take `O=C(NCc1ccc(Cl)cc1)C1(c2cccs2)CCOCC1`: the inhibition is -13.1%.

Turning to `O=C(CCCCn1c(=O)c2ccccc2n(Cc2ccccc2F)c1=O)NCc1ccc2c(c1)OCO2`, the inhibition came out at 15.8%.

For the molecule `Cc1cc2oc(C(=O)N(Cc3ccc(N(C)C)cc3)CC3CCCO3)c(C)c2cc1C` (stereo not given), the inhibition amounted to 9.72%.

`CCC1=Nc2cc(C(=O)NCCCOC(C)C)ccc2Sc2ccc(C)cc21`: the inhibition was -2.48%.

For the molecule `COc1ccc(-c2noc(-c3cc(C(C)C)[nH]n3)n2)cc1`, the inhibition is -2.14%.

Regarding `CCCCN(C)C(=O)c1ccc2c(c1)N(Cc1cccc(Cl)c1)C(=O)c1ccccc1S2=O` (stereo not given), the inhibition is -21%.

Turning to `CCOC(=O)CSc1nc2cc3c(cc2c(=O)n1CCCCCC(=O)NCc1ccc2c(c1)OCO2)OCO3`, the inhibition is -5.81%.

Consider `Cc1cc(C)cc(NC(=O)N2CCN(C)c3ncccc32)c1`, for which the inhibition came out at 8.03%.

Consider `COc1cc(C2Nc3ccccc3-c3nnc(SCc4ccc(Cl)cc4)nc3O2)ccc1OCC(=O)O` (stereo not given), for which the inhibition is -0.994%.

Take `Cc1ccc2c(CC(=O)Nc3ccc(S(=O)(=O)Nc4nc(C)cc(C)n4)cc3)coc2c1`: the inhibition is -18.7%.

With `CCOc1cccc2sc(NC(=O)c3ccc(S(=O)(=O)N4CCc5ccccc54)cc3)nc12`, the inhibition was -5.29%.

On to `CCc1cccc(C)c1NC(=O)C(CC)Sc1nc2ccncc2[nH]1` (stereo not given), for which the inhibition was 16.4%.

With `CCCN1CCN(CC2=C(C(=O)OCC)C(c3cccc(OC)c3OC)NC(=O)N2)CC1` (stereo not given), the inhibition was -13.1%.

For `CCCCc1nn2c(=O)cc(COC(=O)c3ccc(NC(=O)c4cccc(OC)c4)cc3)nc2s1`, the inhibition is -16.1%.

Regarding `Cc1ccc(NC(=O)N2CCc3c(sc4c3CCCC4)C2c2ccccc2)cc1F` (stereo not given), the inhibition was -3.37%.

On to `CSc1ncc(C(=O)NCc2ccccc2Cl)c(C(F)(F)F)n1`, for which the inhibition came out at 2.4%.

Take `COc1cc(C)ccc1OCCSc1nnc(-c2cccs2)o1`: the inhibition amounted to 13.8%.

In the case of `O=C(/C=C/c1ccccc1)Nc1cc(-c2nc3ccccc3o2)ccc1Cl`, the inhibition was determined as 1.88%.

As for `FC(F)(F)c1cccc(N2CCN(Cc3nnc(-c4ccccc4)o3)CC2)c1`, the inhibition was 2.5%.

Take `CC(C)c1ccc(-c2noc(SCC(=O)N3CCCCC3)n2)cc1`: the inhibition worked out at 0.783%.

As for `CCOc1ccccc1CNC(=O)c1ccc(Cn2c(=O)c3cccn3c3cccnc32)cc1`, the inhibition turned out to be 0.343%.

With `CC(=O)Nc1nonc1-c1nnc(SCc2cccc(Br)c2)n1C`, the inhibition came to 4.9%.

On to `CCCN(CCC)CCCNC(=O)c1nn(C)c2c1CS(=O)(=O)c1ccccc1-2`, for which the inhibition amounted to 16.6%.

For the molecule `COc1ccc2c(c1)Cc1sc(NC(=O)c3cccc(Cl)c3)nc1-2`, the inhibition is 10.5%.

Take `CC1CCN(S(=O)(=O)c2ccc3nc(N4CCN(c5ccccc5F)CC4)ccc3c2)CC1`: the inhibition was -9.53%.

As to `COc1ccc(/C=C(\C#N)c2nc(-c3cc4ccccc4oc3=O)cs2)cc1OC`, the inhibition turned out to be 6.96%.

For the molecule `COc1ccccc1N1CCN(C(=O)c2oc3ccccc3c2N)CC1`, the inhibition was 8.81%.

Consider `Cc1ccc(-c2onc(C)c2C)cc1S(=O)(=O)NC1CCC(C)CC1` (stereo not given), for which the inhibition was 0.439%.

As to `CCOc1cc(C2CC(=O)Nc3c2c(C)nn3-c2nc(C)cc(C)n2)ccc1O` (stereo not given), the inhibition came to 2.87%.

As for `COC(=O)c1cccnc1-n1c(=O)c2cccnc2n(CC(=O)Nc2cccc(C(F)(F)F)c2)c1=O`, the inhibition was found to be 13.2%.

`Cc1cc2ccc(C)c(C)c2nc1SCC(=O)c1cccs1`: the inhibition is active: 60.4%.

In the case of `Cc1cccc(Cc2c(C)nc3nc(SCC(=O)NC4CCCCC4)nn3c2C)c1`, the inhibition was found to be 8.42%.

For `Fc1ccc(-c2noc3ncnc(NCc4cccc(Cl)c4)c23)cc1`, the inhibition was found to be 3.16%.

For `CSc1cccc(NS(=O)(=O)c2ccc3[nH]cc(C(=O)N4CCCCCC4)c(=O)c3c2)c1`, the inhibition was -0.576%.

As to `COc1ccc(/C=C\c2onc(C)c2S(=O)(=O)N2CCC(C(=O)Nc3ccc(C)c(F)c3)CC2)cc1`, the inhibition is 8.71%.

`CCOC(=O)c1nnc2c(-c3ccc(F)cc3)c(C)nn2c1N`: the inhibition was 13.2%.

With `Cc1ccc(N2CC(NC(=O)Cc3ccc(F)cc3)CC2=O)cc1C` (stereo not given), the inhibition was -8.21%.

As for `COc1ccccc1CNC(=O)c1cnn(-c2ccc(F)cc2F)c1C1CCN(C(=O)OC(C)(C)C)CC1`, the inhibition stood at 1.57%.

On to `COCCN1CN=C(NS(=O)(=O)c2ccc(C)cc2)NC1`, for which the inhibition was -20.9%.

For the molecule `CCN(CC)c1ccc(C2C(C(N)=O)=C(C)Nc3nc(SCc4ccccc4)nn32)cc1` (stereo not given), the inhibition was found to be 9.48%.

As for `COc1cccc(CNC(=O)C2CCCN(S(=O)(=O)c3cn(C)cn3)C2)c1` (stereo not given), the inhibition is -21.3%.

Take `Cc1ccc(-n2c(=O)c3cccnc3n2CC(=O)Nc2ccccc2C(F)(F)F)cc1C`: the inhibition was -0.474%.

With `COc1ccccc1OC(C)C(=O)N1CCN(CCc2ccccn2)CC1` (stereo not given), the inhibition turned out to be 3.73%.

`CC[C@H](C)NC(=O)CCCc1nnc2n(CCC(C)C)c(=O)c3sccc3n12`: the inhibition came to 19%.

As to `Cc1ccc(C)c(NC(=O)C(NS(=O)(=O)c2ccc3c(c2)CCC(=O)N3)c2ccccc2)c1` (stereo not given), the inhibition is -19.6%.

On to `Cc1ccc(CNC(=O)C2CCN(S(=O)(=O)c3c(C)noc3/C=C/c3ccccc3F)CC2)o1`, for which the inhibition was 0.564%.

Take `COc1ccc(-c2cn3c(n2)sc2cc(C(=O)NC4CCCCC4)ccc23)cc1`: the inhibition came to 15.2%.

For the molecule `Cc1ccnc(NC(c2cc(C)ccc2O)c2ccc3cccnc3c2O)c1` (stereo not given), the inhibition was found to be 11.8%.

In the case of `COc1ccccc1N1CCN(Cc2cc(COC(C)C)c3cccnc3c2O)CC1`, the inhibition is -9.29%.

For `CCOC(=O)C1CCCN(C(=O)Cn2nc(C)n3c(cc4c(OC)cccc43)c2=O)C1` (stereo not given), the inhibition is -7.73%.

Source of the values: PubChem BioAssay AID485344 (National Center for Advancing Translational Sciences (NCATS), 2010).
